The values that follow come from PubChem BioAssay AID1347073 (National Center for Advancing Translational Sciences (NCATS), 2019).

Screen size: about 45,000 compounds; about 200 (0.44%) were called active. Roughly 7% stayed inconclusive and do not appear here. Calls come from the whole dose curve; as a rule, active = well fitted activation curve with a large enough effect; inconclusive = small, poorly fitted or top-dose-only effect; inactive = no such curve, though single readings can be large or run the other way. Some of the results follow.

This assay can be described thus: qHTS of TDP-43 Inhibitors: NCGC Sytravon Library Screen. Note: 0% is about no effect; nearly all actives have a fitted effect of over 55% in size. To be noted: yeast TDP-43 toxicity rescue, BacTiter-Glo growth, 24 h; series mostly up to 46.1 µM; growth rescue (activation): at the top concentration. In short, it runs like this: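 TDP-43-expressing yeast, pregrown in raffinose, seeded at OD600 0.02 in galactose medium with compound for 24 hr at 30 deg C. Growth read by BacTiter-Glo luminescence, so rescue of toxicity appears as activation.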
(In general: qHTS replaces the single test concentration by a dilution series.)
Take `NS(=O)(=O)c1cc(C(=O)NC2CCSc3ccccc32)ccc1Cl` (centres undefined): the “growth rescue (activation)” value is inactive: 23.6%.

As to `COc1ccc(NC(=O)COc2ccc3c(c2)OCO3)cc1`, the “growth rescue (activation)” value is inactive: -19.8%. For `CN(CC(=O)Nc1cccc(Cl)c1)C1=NS(=O)(=O)c2ccccc21`, the “growth rescue (activation)” value is inactive: -0.816%.

`CC(C)Oc1ccc(/C(O)=C2/C(=O)C(=O)N(CCN(C)C)C2c2cccs2)cc1` (centres undefined): the “growth rescue (activation)” value was inactive: 26.1%. Consider `Cc1csc(SCC(=O)N2CCN(S(=O)(=O)c3ccccc3)CC2)n1`, for which the “growth rescue (activation)” value is inactive: -7.56%.

Take `COc1cc(CN(C2CCCCC2C)S(=O)(=O)c2ccc(S(=O)(=O)NC3CC3)cc2)cc(OC)c1OC` (centres undefined): the “growth rescue (activation)” value is inactive: 6.1%.

For `CSc1nc2sc3c(c2c(=O)[nH]1)CCc1ccccc1-3`, the “growth rescue (activation)” value was inactive: 14.5%. For the compound `O=C(c1cccc(S(=O)(=O)N2CCCC2)c1)N(Cc1ccco1)C1CCS(=O)(=O)C1` (centres undefined), the “growth rescue (activation)” value was inactive: 2.24%.

With `COc1cccc(C(=O)Nc2ccc3c(c2)OCO3)c1OC`, the “growth rescue (activation)” value was inactive: 18.5%. Turning to `CCc1nnc(N/N=C/c2ccc(-c3ccc([N+](=O)[O-])cc3)o2)n1N`, the “growth rescue (activation)” value is inactive: 25.9%. On to `O=C(O)c1cccc(NC(=S)N/N=C/c2ccccc2OCc2ccc(Br)cc2)c1`, for which the “growth rescue (activation)” value is inactive: 19.8%. `Cc1nc(NC(=O)CSc2cc(C)c3ccccc3n2)c(Cl)cc1Cl`: the “growth rescue (activation)” value was inactive: -5.9%.

As to `CN(CC(=O)NC(=O)Nc1ccccc1F)Cc1ccccc1`, the “growth rescue (activation)” value was inactive: -6.54%. In the case of `O=C(c1cccc([N+](=O)[O-])c1)c1ccc2c(c1)OCCOCCOCCO2`, the “growth rescue (activation)” value was inactive: 19.4%. The figure for `COc1ccc(S(=O)(=O)N2CCN(C(=O)Cc3ccsc3)CC2)cc1` is inactive: 21.8%.

As for `COc1ccc(Br)cc1C(=O)Nc1cccc2ncccc12`, the “growth rescue (activation)” value is inactive: 2.73%. As to `CC(C)c1ccc(NC(=S)NN2C(C)CCCC2C)cc1` (centres undefined), the “growth rescue (activation)” value is inactive: 7.92%. Take `COC(=O)c1c(C(=O)OC)c2cc(C)ccn2c1Cl`: the “growth rescue (activation)” value is inactive: 20.7%. For the compound `Cc1cccc(N2C(=O)C(CC(=O)Nc3cccc(F)c3)N(CCc3ccncc3)C2=O)c1` (centres undefined), the “growth rescue (activation)” value is inactive: 3.4%. Regarding `Cc1ccc(CN(C)C(=O)CC2C(=O)NCCN2CC2CCCCC2)cc1` (centres undefined), the “growth rescue (activation)” value was inactive: 1.63%. The figure for `CC1CCN(S(=O)(=O)c2ccc(NC(=O)C3CC3)cc2)CC1` is inactive: 31%; for `COc1cc(/C=N/NC(=O)c2ccncc2)ccc1OC(=O)c1cc(OC)c(OC)c(OC)c1` it is inactive: 13.9%. In the case of `COc1ccccc1NC(=O)N1CCCC1`, the “growth rescue (activation)” value is inactive: -8.9%. On to `CCOc1ncccc1C(=O)NCC(c1ccco1)N1CCCCC1` (centres undefined), for which the “growth rescue (activation)” value is inactive: 23.3%. In the case of `COc1cccc(CCNC(=O)CC2C(=O)NCCN2Cc2ccc(Cl)c(F)c2)c1` (centres undefined), the “growth rescue (activation)” value was inactive: 8.5%. Take `COc1ccc(NC(=O)CCC(=O)N(Cc2ccc(OC)c(OC)c2)c2nccs2)cc1`: the “growth rescue (activation)” value is inactive: -2.54%.

In the case of `CC1CN(C(=O)COC(=O)c2ccccc2O)CC(C)O1` (centres undefined), the “growth rescue (activation)” value was inactive: -9.19%. Then `Cc1ccc(NC(=O)c2ccc([N+](=O)[O-])cc2)cc1S(=O)(=O)N(C)C`, with inactive: 8.09%; and `COC(=O)c1ccc(OC(=O)c2cccnc2SC)cc1`, with inactive: 8.83%.

With `COc1ccc(NC(=O)c2ccc3c(c2)C(=O)N(Cc2ccncc2)C3=O)cc1S(N)(=O)=O`, the “growth rescue (activation)” value was inactive: 4.64%. Take `COc1ccc(OC)c(NC(=O)c2sc3ncnc(N4CCN(c5ccccn5)CC4)c3c2C)c1`: the “growth rescue (activation)” value was inactive: 8.84%. Turning to `Cc1ccc(NC(=O)C(C)Sc2n[nH]c(CNc3ccccc3)n2)cc1` (centres undefined), the “growth rescue (activation)” value was inactive: -19.1%.

Take `COc1ccc(/C=N/NC(=O)c2cccc(NC(=O)c3ccc(F)cc3)c2)c(C(=O)O)c1OC`: the “growth rescue (activation)” value was inactive: 2.89%. The figure for `COc1ccccc1CN1CCNC(=O)C1CC(=O)NCCc1cnccn1` (centres undefined) is inactive: -5.91%.

With `COc1ccc(C)cc1S(=O)(=O)N(CC(=O)Nc1cc([N+](=O)[O-])ccc1C)c1ccc(C)c(C)c1`, the “growth rescue (activation)” value was inactive: 7.48%. For the compound `S=C(NCc1ccco1)NCC1CCCO1` (centres undefined), the “growth rescue (activation)” value is inactive: 14.2%. For `O=C(CSCc1ccc(Br)cc1)NCc1ccccn1`, the “growth rescue (activation)” value is inactive: 9.63%. For the compound `Nc1c(C(=O)NCC2CCCO2)sc2nc3c(c(-c4ccco4)c12)CC/C3=C\c1ccco1` (centres undefined), the “growth rescue (activation)” value was inactive: 5.88%. For the compound `COc1ccc(N(C(=O)c2snc(C(N)=O)c2N)C(C(=O)NCC2CCCO2)c2ccc3ncccc3c2)cc1OC` (centres undefined), the “growth rescue (activation)” value was inactive: -7.43%. The figure for `CCN(CC)C(=O)CCCSc1nnc(Nc2ccccc2F)s1` is inactive: -26.6%; for `CCn1c(COc2c(C)cccc2C)nnc1SCc1nc2ccccc2c(=O)[nH]1` it is inactive: 11.5%. Regarding `Nc1nc2ccc(C(=O)NCCOC(=O)C3CCCCC3)cc2s1`, the “growth rescue (activation)” value is inactive: -4.31%. `COc1ccc(CN2CCN(CCc3ccccc3)C(CCO)C2)cc1Cn1cncn1` (centres undefined): the “growth rescue (activation)” value is inactive: -0.996%.

In the case of `Cc1ccc(C(C(=O)NC2CCCCC2)N2CCCC2)cc1` (centres undefined), the “growth rescue (activation)” value was inactive: 19.9%. Turning to `Cc1ccc(NC(=O)CC(=O)c2ccccc2)cc1C`, the “growth rescue (activation)” value is inactive: 22.4%. On to `O=C(Cn1c(COc2ccccc2)nc2ccccc21)Nc1cc(Cl)cc(Cl)c1`, for which the “growth rescue (activation)” value is inactive: 12.9%.

On to `Cc1ccc(C)c(S(=O)(=O)Nc2ccc3oc(C)c(C(=O)O)c3c2)c1`, for which the “growth rescue (activation)” value was inactive: 25.2%. The figure for `CC(O)CNc1ccc(-c2nn(C)c(=O)c3ccccc23)cc1[N+](=O)[O-]` (centres undefined) is inactive: 13.7%; for `COc1cccc(NC(=O)c2ccc(-n3cnnn3)cc2)c1` it is inactive: 15%; for `CN(CC(=O)Nc1ccc2c(c1)OCO2)S(=O)(=O)c1ccc(F)cc1` it is inactive: 18.3%. In the case of `Cc1ccc(-c2nnc(OCc3nc4ccccc4n3C)c3ccccc23)cc1`, the “growth rescue (activation)” value was inactive: 5.22%. On to `COc1ccc(OC)c(S(=O)(=O)N2CCC(C(=O)NC3CC3)CC2)c1`, for which the “growth rescue (activation)” value is inactive: -3.42%. For `S=c1[nH]nc(COc2ccccc2)n1-c1ccc(Cl)cc1`, the “growth rescue (activation)” value is inactive: -12.4%. In the case of `COc1ccccc1-c1nnc(SCC(=O)c2ccc(C3CCCCC3)cc2)n1Cc1ccco1`, the “growth rescue (activation)” value is inactive: 23.1%.
